# Experimental data taken from PubChem BioAssay AID1645882 (National Center for Advancing Translational Sciences (NCATS), 2021).
# The campaign covered roughly 16,000 compounds. About 120 (0.75%) were called active. Inconclusive results (about 4%) are left out. Calls come from the whole dose curve; as a rule, active = well fitted inhibition curve with a large enough effect; inconclusive = small, poorly fitted or top-dose-only effect; inactive = no such curve, though single readings can be large or run the other way. The list shows a part of the results. Where a SMILES comes first, the peptide text is derived from it. The star is where a group is joined. CH2Cl = ClC*
# Molecular target: Rap guanine nucleotide exchange factor 3 (Homo sapiens) (UniProt O95398)
# Assay: Validation qHTS for antagonist of cAMP-regulated guanine nucleotide exchange factor 3 (EPAC1); note: nearly all actives have a fitted effect of over 75% in size
# Settings: EPAC1 Rap1B-BODIPY-GDP exchange, fluorescence; activity change, negative = inhibition: at the top concentration
# Text: Assay Provider (PI): Xiaodong Cheng Ph.D.
# The University of Texas Medical Branch, […], TX
# In multi-cellular eukaryotic organisms, the effects of cAMP are transduced by two ubiquitously-expressed intracellular cAMP receptors, the classic protein kinase A/cAMP-dependent protein kinase (PKA/cAPK) and the more recently discovered exchange protein directly activated by cAMP/cAMP-regulated guanine nucleotide exchange factor (EPAC/cAMP-GEF). Both PKA and EPAC are ubiquitously expressed in all tissues, and an increase in intracellular cAMP levels will lead to the activation of both PKA and EPAC. Therefore, careful dissections of the individual role and relative contribution of EPAC and PKA within the overall cAMP signaling in various model systems are critical for further elucidating the mechanism of cAMP signaling. To date no EPAC-specific antagonists and agonist, as well as isoform-specific agonists have been reported, and developing EPAC-specific pharmacological probes to determine the physiological functions that EPAC play in the overall cAMP-mediated signaling remains a major challenge within the research field. Furthermore, identified regulators of EPAC may lead to new mechanism-based therapeutic strategies specifically targeting the EPAC / cAMP-signaling components as EPAC has been implicated to play important roles in major human pathological conditions such as diabetes, heart disease, and cancer.
# This qHTS will be used to screen the Molecular Libraries Small Molecule Repository (MLSMR) as a concentration-titration series using the NCGC unique quantitative screening (qHTS) platform to find activators for EPAC1. In addition, this assay will also be used as a counterscreen for the EPAC2 qHTS. This fluorescent based assay is developed and validated for EPAC1 that measures exchange using EPAC effector Rap1 complex with BODIPY-GDP, a GDP analog with a tethered fluorophores. Activators are identified by monitoring the change in fluorescence signal as the exchanged free BODIPY-GDP has a reduced fluorescence compared to Rap1-bound BODIPY-GDP. Increase in signal (activation) is the desired outcome for the EPAC1 agonist while no activity in this assay is desired for the EPAC2 agonist counterscreen.
# [1] de Rooij, J., Zwartkruis, F. J., Verheijen, M. H., Cool, R. H., Nijman, S. M., Wittinghofer, A., and Bos, J.L. (1998) Nature 396, 474-477.
# Briefly, three uL of reagents (100 nM EPAC1, 250 nM RAP1B-BODIPY-GDP, 50 uM GDP) were dispensed into a 1536-well Greiner black solid-bottom medium binding assay plate. Controls and test compounds (23 nL) were transferred to the plate via a Kalypsys pin tool equipped with a 1536-pin array. The plates were centrifuged at 1,000 rpm for 15 seconds followed by 5 minute incubation at room temperature. The assay plates were read at 5 minute intervals for 30 minutes in the ViewLux plate reader using 480nm excitation and 540nm emission filters. The results were normalized to the […] positive control ATA and DMSO.
# Sequence of UniProt O95398 (O95398 whole entry, looked up): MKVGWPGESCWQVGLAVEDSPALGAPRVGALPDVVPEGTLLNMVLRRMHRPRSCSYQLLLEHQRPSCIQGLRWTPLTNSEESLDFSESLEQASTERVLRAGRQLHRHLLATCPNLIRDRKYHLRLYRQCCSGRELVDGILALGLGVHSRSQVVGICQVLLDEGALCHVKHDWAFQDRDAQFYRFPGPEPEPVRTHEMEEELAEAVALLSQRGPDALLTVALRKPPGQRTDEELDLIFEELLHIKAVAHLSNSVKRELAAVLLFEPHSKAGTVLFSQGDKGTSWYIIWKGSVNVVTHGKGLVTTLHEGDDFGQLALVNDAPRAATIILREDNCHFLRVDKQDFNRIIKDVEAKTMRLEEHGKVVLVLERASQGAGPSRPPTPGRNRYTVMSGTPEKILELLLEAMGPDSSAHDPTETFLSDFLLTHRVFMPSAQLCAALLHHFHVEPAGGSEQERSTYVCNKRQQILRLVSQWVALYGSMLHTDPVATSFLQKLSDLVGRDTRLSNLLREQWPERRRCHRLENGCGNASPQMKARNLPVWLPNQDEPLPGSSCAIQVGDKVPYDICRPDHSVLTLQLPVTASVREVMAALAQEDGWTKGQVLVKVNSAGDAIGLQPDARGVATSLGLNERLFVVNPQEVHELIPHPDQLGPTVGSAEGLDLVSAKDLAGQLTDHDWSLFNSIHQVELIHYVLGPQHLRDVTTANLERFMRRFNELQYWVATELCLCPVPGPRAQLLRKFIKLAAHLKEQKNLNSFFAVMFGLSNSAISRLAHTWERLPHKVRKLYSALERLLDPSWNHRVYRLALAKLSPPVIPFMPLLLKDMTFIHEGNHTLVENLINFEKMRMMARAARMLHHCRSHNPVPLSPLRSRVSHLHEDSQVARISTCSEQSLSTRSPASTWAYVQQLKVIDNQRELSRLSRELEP
row,SMILES,"activity change, negative = inhibition"
1,O=C(O)C(Cl)Cl,inactive
2,O=C(NC(=O)c1c(F)cccc1F)Nc1ccc(Cl)cc1,inactive: 6.06%
3,C[C@@H]1C[C@@H]([C@H](O)CC2CC(=O)NC(=O)C2)C(=O)[C@@H](C)C1,inactive
4,CN1C(=O)COc2c(C(=O)N[C@@H]3CN4CCC3CC4)cc(Cl)cc21,inactive: 6.92%
5,COC[C@H]([C@@H](O)[C@@H](O)C(=O)NCC[C@@H](C)c1nc(/C=C/C[C@H]2OC3(C[C@H](O)[C@H]2C)OC([C@@H](C[C@@H](O)[C@@H](C)[C@@H](O)[C@@H](C)/C=C(C)/C(C)=C/C=C/C(C)=C\C#N)OC)[C@@H](OP(=O)(O)O)C3(C)C)co1)N(C)C (stereo partly specified),inactive: 27.7% [at 7.83 µM]
6,C[C@H](N)C(=O)c1ccccc1,inactive
7,COc1cc(C(O)CN)ccc1O (stereo unspecified),inactive: 4.53% [at 75.8 µM]
8,c1cncc([C@@H]2CCCCN2)c1,inactive: 22.7%
9,CN1[C@@H]2CC[C@H]1CC(OC(=O)c1cc(Cl)cc(Cl)c1)C2 (stereo partly specified),inactive
10,CC(C)(O)[C@@H]1[C@H]2OC(=O)[C@@H]1[C@]1(O)C[C@H]3O[C@]34C(=O)O[C@H]2[C@]14C,inactive
11,C[C@H](N)C(=O)N[C@@H](C)C(=O)N[C@@H](Cc1ccccc1)C(=O)CCl (H-Ala-Ala-Phe-CH2Cl),inactive: 29.8% [at 201 µM]
12,C[C@]12CC[C@H](O)C[C@H]1CC[C@@H]1[C@@H]2CC[C@]2(C)[C@@H](c3ccc(=O)oc3)C[C@H]3O[C@]132,inactive: 11%
13,COc1cc2c(c(OC)c1OC)-c1ccc(O)c(=O)cc1C(NC(C)=O)CC2 (stereo unspecified),inactive: 19.8%
14,Clc1ccc(Cl)cc1,inactive: 15.5%
15,Cn1sc(Cl)cc1=O,inactive: 5.01%
16,C[C@H]1O[C@@H](O[C@H]2[C@@H](O)C[C@H](O[C@H]3[C@@H](O)C[C@H](O[C@H]4CC[C@@]5(C)[C@H](CC[C@@H]6[C@@H]5CC[C@]5(C)[C@@H](C7=CC(=O)OC7)CC[C@]65O)C4)O[C@@H]3C)O[C@@H]2C)C[C@H](O)[C@@H]1O,inactive: 23.7%
17,CN1CC[C@@H]2CN3CCc4cccc(c43)[C@@H]2C1,inactive: 2.75%
18,COc1ccc2c3c1O[C@H]1[C@@H](O)C=C[C@H]4[C@@H](C2)NCC[C@@]341,inactive
19,C[N+]1(C)CCc2cc3c(cc2[C@H]1[C@@H]1OC(=O)c2c1ccc1c2OCO1)OCO3,inactive: 10.9% [at 75.8 µM]
20,Cc1nnc2n1-c1ccc(Cl)cc1C(c1ccccc1)=NC2,inactive: 26%
21,CCC/C=C/C=C/C(=O)O[C@H]1/C(=C/C(=O)OC)C[C@H]2C[C@H]([C@@H](C)O)OC(=O)C[C@H](O)C[C@@H]3C[C@H](OC(C)=O)C(C)(C)[C@](O)(C[C@@H]4C/C(=C/C(=O)OC)C[C@H](/C=C/C(C)(C)[C@]1(O)O2)O4)O3,inactive: -4.25%
22,O=C(CN1CCCC1)c1ccccc1,inactive: -7.88%
23,C=CCc1cc(OC)c2c(c1OC)OCO2,inactive: 4.54%
24,O=C(O)[C@@H]1CSC(c2cccnc2)N1 (stereo partly specified),inactive: 15.1%
25,COc1ccc2c(c1O)-c1cccc3c1[C@@H](C2)N(C)CC3,inactive: 20.3% [at 75.8 µM]
26,NC(CCP(=O)(O)O)C(=O)O (stereo unspecified),inactive

row,SMILES,"activity change, negative = inhibition"
1,c1ccc(CN2CCCC3(CCNCC3)C2)cc1,inactive: 13.9%
2,COc1cccc(-c2ccc(O)c(CNC3CN4CCC3CC4)c2)n1 (stereo unspecified),inactive: 5.82%
3,NCC1(CC(=O)O)CCCCC1,inactive
4,COc1cc2ccc(=O)oc2c2ccoc12,inactive: -8.29%
5,C[C@]12CC[C@H]3[C@@H](CCC4=CC(=O)CC[C@@]43C)[C@@H]1CC[C@@H]2OC(=O)CCc1ccccc1,inactive: 9.06% [at 320 µM]
6,COC1CC(OC2CC[C@@]3(C=O)C4CC[C@]5(C)C(C6=CC(=O)OC6)CC[C@@]5(O)C4CC[C@]3(O)C2)OC(C)C1O (stereo partly specified),inactive: 7.91%
7,CCC(=O)Nc1ccc(Cl)c(Cl)c1,inactive: -22.6%
8,CCC(=O)C(CC(C)N(C)C)(c1ccccc1)c1ccccc1 (stereo unspecified),inactive: 34.5% [at 320 µM]
9,C=CCc1ccc(OC)cc1,inactive: -7.98%
10,CCOC(=O)[C@]12Cc3ccccc3[C@H]1N(Cc1ccccc1)C(=O)c1ccccc12,inactive: -0.377%
11,COc1ccc(OC)c([C@@H](O)[C@H](C)N)c1,inactive: 18%
12,Cc1ccccc1-c1cncnc1NCCc1cnc[nH]1,inactive: 21.5%
13,COC[C@H]1OC(=O)c2coc3c2[C@@]1(C)C1=C(C3=O)C2CCC(=O)[C@@]2(C)C[C@H]1OC(C)=O (stereo partly specified),inactive
14,Nc1ccc(Cl)cc1N,inactive: 9.12% [at 320 µM]
15,CN(C(=O)Cc1ccc(Cl)c(Cl)c1)[C@H](CN1CCCC1)c1cccc(N=C=S)c1,inactive: -9.35%
16,O=C(O)CF,inactive: 7.39%
17,Cc1ccc2c(c1)[C@]13CCCC[C@@H]1[C@H](C2)N(C)CC3,inactive: 19.2%
18,O=C(CCCN1CCC2(CC1)C(=O)NCN2c1ccccc1)c1ccc(F)cc1,inactive
19,C=CCN1CCC23c4c5ccc(O)c4OC2/C(=N/N=C2\CCC4(O)C6Cc7ccc(O)c8c7C4(CCN6CC=C)C2O8)CCC3(O)C1C5 (stereo unspecified),inactive: 7.98%
20,C[C@@H]1O[C@H](C[N+](C)(C)C)CS1,inactive: -10.3% [at 75.8 µM]
21,CCOP(=O)(OCC)O/C(=C/Cl)c1ccc(Cl)cc1Cl,inactive: 0.79%
22,O=[N+]([O-])O[C@H]1CO[C@H]2[C@@H]1OC[C@H]2O[N+](=O)[O-],inactive: 18.8%
23,C[C@]12Cc3nonc3C[C@@H]1CC[C@@H]1[C@@H]2CC[C@@]2(C)[C@H]1CC[C@]2(C)O,inactive: 10.4%
24,C=C1CC[C@@]2(O)[C@H]3Cc4ccc(O)c5c4[C@@]2(CCN3CC2CC2)[C@H]1O5,inactive: 15%
25,Fc1ccc(C(OCCN2CCN(C/C=C/c3ccccc3)CC2)c2ccc(F)cc2)cc1,inactive: -13.8%
